Binding signal data for 31 sequences are collected here from PMC12820563, “FoxP3 forms a head-to-head dimer in vivo and stabilizes its multimerization on adjacent microsatellites”.

The other results are listed elsewhere or left out.

For the experiment, the target named is T1, MBP-FoxP1dN (Mus musculus, UniProt P58462 326-579).
T1 sequence: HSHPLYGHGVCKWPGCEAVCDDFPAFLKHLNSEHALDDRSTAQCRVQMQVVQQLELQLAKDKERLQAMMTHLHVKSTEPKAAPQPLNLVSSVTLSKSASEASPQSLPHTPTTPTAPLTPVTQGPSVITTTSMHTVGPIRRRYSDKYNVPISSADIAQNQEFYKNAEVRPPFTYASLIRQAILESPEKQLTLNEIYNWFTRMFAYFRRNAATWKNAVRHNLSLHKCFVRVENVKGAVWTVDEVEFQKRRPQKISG
In words: PD-seq (MBP pull-down with sequencing); 20 mM Tris-HCl pH 7.5, 100 mM NaCl, 1.5 mM MgCl2, 0.4 uM protein, 0.1 uM dsDNA library, 30 min, room temperature, amylose pull-down; high values mean tight binding. The note with it: protein: recombinant; tags: His6-MBP; chain copies: 2; dsDNA, one strand shown. An outline of the steps:
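Amylose resin was used to capture complexes formed during 30 min at room temperature in Tris pH 7.5 buffer with NaCl and MgCl2 between 0.4 µM His6-MBP-tagged mouse FoxP3 or FoxP1 fragment lacking the N-terminus, expressed in E. coli, and 0.1 µM Klenow-filled double-stranded degenerate DNA library. After three washes, the DNA was released with proteinase K, barcoded by PCR and sequenced on Illumina. Binding is pooled-replicate reads-per-million enrichment, pull-down over input.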
On to “GATGATTGTTCTCCCAGCTGATGAATTGCTTCTCTCGAGTAAACAAATTTTCCTAATCTTTCTGTTCAAGCGCCATCTAC”, for which the binding signal was 1.03 RPM ratio (pull-down/input).
To “GATGATTGTTCTCCCAGCTGATGAATTTTTTTCTTCGAGTAAACAAATTTTCCTAATCTTTCTGTTCAAGCGCCATCTAC” belongs 0.877 RPM ratio (pull-down/input).
The figure for “GATGATTGTTCTCCCAGCTGATGAATTCGGTTCGTCGAGTAAACAAATTTTCCTAATCTTTCTGTTCAAGCGCCATCTAC” is 0.853 RPM ratio (pull-down/input).
To “GATGATTGTTCTCCCAGCTGATGAATTGGGTCGCTCGAGTAAACAAATTTTCCTAATCTTTCTGTTCAAGCGCCATCTAC” belongs 0.828 RPM ratio (pull-down/input); to “GATGATTGTTCTCCCAGCTGATGAATTTCCAGATTCGAGTAAACAAATTTTCCTAATCTTTCTGTTCAAGCGCCATCTAC”, 0.826 RPM ratio (pull-down/input); to “GATGATTGTTCTCCCAGCTGATGAATTGACTGGGTCGAGTAAACAAATTTTCCTAATCTTTCTGTTCAAGCGCCATCTAC”, 0.86 RPM ratio (pull-down/input).
In the case of “GATGATTGTTCTCCCAGCTGATGAATTGCAAGAGTCGAGTAAACAAATTTTCCTAATCTTTCTGTTCAAGCGCCATCTAC”, the binding signal is 1.05 RPM ratio (pull-down/input).
With “GATGATTGTTCTCCCAGCTGATGAATTGACCACGTCGAGTAAACAAATTTTCCTAATCTTTCTGTTCAAGCGCCATCTAC”, the binding signal was 0.941 RPM ratio (pull-down/input).
To “GATGATTGTTCTCCCAGCTGATGAATTAGCGACCTCGAGTAAACAAATTTTCCTAATCTTTCTGTTCAAGCGCCATCTAC” belongs 0.762 RPM ratio (pull-down/input); to “GATGATTGTTCTCCCAGCTGATGAATTCTCGGAATCGAGTAAACAAATTTTCCTAATCTTTCTGTTCAAGCGCCATCTAC”, 0.939 RPM ratio (pull-down/input).
The figure for “GATGATTGTTCTCCCAGCTGATGAATTATCCTCTTCGAGTAAACAAATTTTCCTAATCTTTCTGTTCAAGCGCCATCTAC” is 0.975 RPM ratio (pull-down/input).
To “GATGATTGTTCTCCCAGCTGATGAATTTAATTTGTCGAGTAAACAAATTTTCCTAATCTTTCTGTTCAAGCGCCATCTAC” belongs 1.25 RPM ratio (pull-down/input); to “GATGATTGTTCTCCCAGCTGATGAATTCTCAACCTCGAGTAAACAAATTTTCCTAATCTTTCTGTTCAAGCGCCATCTAC”, 0.795 RPM ratio (pull-down/input); to “GATGATTGTTCTCCCAGCTGATGAATTCACCTGTTCGAGTAAACAAATTTTCCTAATCTTTCTGTTCAAGCGCCATCTAC”, 0.849 RPM ratio (pull-down/input).
Regarding “GATGATTGTTCTCCCAGCTGATGAATTCAGTTAGTCGAGTAAACAAATTTTCCTAATCTTTCTGTTCAAGCGCCATCTAC”, the binding signal was 0.883 RPM ratio (pull-down/input).
The figure for “GATGATTGTTCTCCCAGCTGATGAATTTAGACTGTCGAGTAAACAAATTTTCCTAATCTTTCTGTTCAAGCGCCATCTAC” is 0.976 RPM ratio (pull-down/input); for “GATGATTGTTCTCCCAGCTGATGAATTGGCTTAATCGAGTAAACAAATTTTCCTAATCTTTCTGTTCAAGCGCCATCTAC” it is 0.938 RPM ratio (pull-down/input).
To “GATGATTGTTCTCCCAGCTGATGAATTTGGCGGATCGAGTAAACAAATTTTCCTAATCTTTCTGTTCAAGCGCCATCTAC” belongs 0.847 RPM ratio (pull-down/input); to “GATGATTGTTCTCCCAGCTGATGAATTCTTATTATCGAGTAAACAAATTTTCCTAATCTTTCTGTTCAAGCGCCATCTAC”, 1.6 RPM ratio (pull-down/input); to “GATGATTGTTCTCCCAGCTGATGAATTGTATGTGTCGAGTAAACAAATTTTCCTAATCTTTCTGTTCAAGCGCCATCTAC”, 1.37 RPM ratio (pull-down/input).
In the case of “GATGATTGTTCTCCCAGCTGATGAATTTTCACCATCGAGTAAACAAATTTTCCTAATCTTTCTGTTCAAGCGCCATCTAC”, the binding signal is 1.03 RPM ratio (pull-down/input).
To “GATGATTGTTCTCCCAGCTGATGAATTGTATCATTCGAGTAAACAAATTTTCCTAATCTTTCTGTTCAAGCGCCATCTAC” belongs 1.26 RPM ratio (pull-down/input); to “GATGATTGTTCTCCCAGCTGATGAATTTGATTCCTCGAGTAAACAAATTTTCCTAATCTTTCTGTTCAAGCGCCATCTAC”, 0.839 RPM ratio (pull-down/input).
To “GATGATTGTTCTCCCAGCTGATGAATTAGCATGGTCGAGTAAACAAATTTTCCTAATCTTTCTGTTCAAGCGCCATCTAC” belongs 0.958 RPM ratio (pull-down/input); to “GATGATTGTTCTCCCAGCTGATGAATTAGGTAAGTCGAGTAAACAAATTTTCCTAATCTTTCTGTTCAAGCGCCATCTAC”, 0.918 RPM ratio (pull-down/input); to “GATGATTGTTCTCCCAGCTGATGAATTGAGGTCATCGAGTAAACAAATTTTCCTAATCTTTCTGTTCAAGCGCCATCTAC”, 0.884 RPM ratio (pull-down/input).
The figure for “GATGATTGTTCTCCCAGCTGATGAATTCTCATTATCGAGTAAACAAATTTTCCTAATCTTTCTGTTCAAGCGCCATCTAC” is 0.971 RPM ratio (pull-down/input); for “GATGATTGTTCTCCCAGCTGATGAATTCACACGCTCGAGTAAACAAATTTTCCTAATCTTTCTGTTCAAGCGCCATCTAC” it is 0.978 RPM ratio (pull-down/input).
On to “GATGATTGTTCTCCCAGCTGATGAATTCCCTCGGTCGAGTAAACAAATTTTCCTAATCTTTCTGTTCAAGCGCCATCTAC”, for which the binding signal was 0.759 RPM ratio (pull-down/input).
With “GATGATTGTTCTCCCAGCTGATGAATTGATGGGCTCGAGTAAACAAATTTTCCTAATCTTTCTGTTCAAGCGCCATCTAC”, the binding signal is 0.869 RPM ratio (pull-down/input).
Turning to “GATGATTGTTCTCCCAGCTGATGAATTATTCTTCTCGAGTAAACAAATTTTCCTAATCTTTCTGTTCAAGCGCCATCTAC”, the binding signal was 1.03 RPM ratio (pull-down/input).
